# Data taken from PMC6919601, “Identification of Plasmodium dipeptidyl aminopeptidase allosteric inhibitors by high throughput screening” (PLoS ONE, 2019).
# Several values for one entry are separate records, joined by “and”; a condition that tells them apart may be missing. Equal entries are not always repeated. In all, about 110,000 compounds went through this assay and about 230 (0.21%) showed an effect of 50% or more. This is one part of the list. Where a SMILES comes first, the peptide text is derived from it. The star is where a group is joined. Boc = CC(C)(C)OC(=O)*
# Target: DPAP1 (Plasmodium falciparum, UniProt Q8IIJ9)
# Test: primary screen, percent inhibition; read by cleavage of a fluorogenic dipeptide substrate; higher = more effect of the substance
# Set-up: species or system P. falciparum D10 trophozoite lysates; single well
# 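Note: 30 min substrate incubation versus DMSO and 10 µM JCP410 controls.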
# Sequence of DPAP1 (Q8IIJ9 whole entry, looked up): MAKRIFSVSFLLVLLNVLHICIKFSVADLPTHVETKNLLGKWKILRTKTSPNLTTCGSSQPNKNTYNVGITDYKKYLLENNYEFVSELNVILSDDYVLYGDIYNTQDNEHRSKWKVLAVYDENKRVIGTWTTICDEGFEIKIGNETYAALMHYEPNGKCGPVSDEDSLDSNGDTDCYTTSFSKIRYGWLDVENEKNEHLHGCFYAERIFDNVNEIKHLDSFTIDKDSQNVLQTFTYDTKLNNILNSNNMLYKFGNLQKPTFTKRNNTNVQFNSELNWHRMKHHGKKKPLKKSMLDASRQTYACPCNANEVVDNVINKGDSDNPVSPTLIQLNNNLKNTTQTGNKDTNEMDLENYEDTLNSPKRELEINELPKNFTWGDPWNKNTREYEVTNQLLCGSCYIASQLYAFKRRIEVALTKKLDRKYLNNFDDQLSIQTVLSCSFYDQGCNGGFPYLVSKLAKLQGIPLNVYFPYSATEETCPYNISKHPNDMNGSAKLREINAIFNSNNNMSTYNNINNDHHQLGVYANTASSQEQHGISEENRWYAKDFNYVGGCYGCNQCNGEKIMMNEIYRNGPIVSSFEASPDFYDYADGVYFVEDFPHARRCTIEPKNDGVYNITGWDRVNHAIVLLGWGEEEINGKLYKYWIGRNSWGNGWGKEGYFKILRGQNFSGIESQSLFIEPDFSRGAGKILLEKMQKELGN
row,Compound,% Inhibition @ 10 uM
1,O=c1[nH]c(=O)c2sc3nc4c(cc3c2[nH]1)CCCCC4,-6.05%
2,CCCCNC(=O)c1ccccc1NC(=O)c1ccco1,14.8%
3,COc1ccc(C2CC(=O)Nc3c2cc(Br)c2ccccc32)c(OC)c1OC (centres unmarked),-0.478%
4,CC(=O)N1CCC(NCCC(c2ccccc2)c2ccccc2)CC1,1.57%
5,CC(=O)NCCNC(=O)c1cc2ccccc2cc1O,-2.84%
6,COC(C(=O)NCc1ccc(C)cc1)c1ccccc1 (centres unmarked),-2.88% and -1.88%
7,COc1ccc(CN2C(=O)c3cccnc3C2=O)cc1S(=O)(=O)N1CC=C(c2ccccc2)CC1,0.882%
8,Cc1ccc(C(=O)Nc2nc(-c3ccccc3)cs2)cc1,4.16%
9,CCCCN(C)C(=O)c1cc(-c2ccc(F)cc2)[nH]n1,2.96%
10,Cc1ccc(-n2c(C)cc(C(=O)C(=O)NCc3ccco3)c2C)cc1C,-2.84%
11,Fc1ccc(-c2nnc(-c3ccccc3-c3ccc(C(F)(F)F)cc3)o2)cc1,-6.35%
12,COC(=O)c1ccc(-c2ccco2)n1CC(=O)NC1CCCC1,-9.33%
13,Cc1coc2c1c(C)cc1oc(=O)c(CC(=O)NCc3ccco3)c(C)c12,-0.808%
14,CCCOc1cccc(C2c3c(oc4ccccc4c3=O)C(=O)N2c2nnc(C(C)C)s2)c1 (centres unmarked),-6.23%
15,CCCCOc1ccc(S(=O)(=O)NCc2csc(-c3ccccc3)n2)cc1,-0.72%
16,Fc1ccccc1OCCCCCCN1CCCC1,-0.833%
17,COc1ccc(-c2nnc(NC(=O)C(F)(F)F)s2)cc1OC,1.58%
18,O=C1CCCN1CCSC(=S)N1CCCCCC1,-3.99%
19,Cc1cc(NC(=O)CC(C)n2nc(C)cc2C)c2ccccc2n1 (centres unmarked),-1.93%
20,Clc1cccc(C2NCCc3c2[nH]c2ccccc32)c1Cl (centres unmarked),4.89%
21,O=C(Cn1ncc2c3ccccc3n(Cc3ccccc3)c2c1=O)N1CCOCC1,1.8%
22,Cc1ccc(S(=O)(=O)N2CC=C(c3c(C)n(CC(=O)N4CCCC4)c4ccccc34)CC2)c(C)c1,0.66%
23,Cc1ccc(C2CC(C(F)(F)F)n3ncc(C(=O)N(C)Cc4c(C)nn(C)c4C)c3N2)cc1 (centres unmarked),-2.14%
24,CCOC(=O)C1CCN(Cc2ccccc2Cl)CC1,3.25%
25,Cc1nc2ccccc2c2oc(C(=O)NC3CC3)cc12,-1.7%
26,CC(=O)c1ccc(N(C(C)=O)C2=C(NCCO)C(=O)c3ccccc3C2=O)cc1,-1.5%

row,Compound,% Inhibition @ 10 uM
1,COc1cccc2c(C(=O)O)cc(-c3ccccc3)nc12,0.0345%
2,Cc1c(CN2CCC(C(N)=O)CC2)c(=O)n(-c2ccccc2)n1C,-3.27%
3,CC1CC(C)CN(C(=O)CN2C(=O)CSc3ncccc32)C1 (centres unmarked),1.03%
4,Cc1cc(C)nc(N2C(=O)CC(Cc3ccc(Cl)cc3)C2=O)n1 (centres unmarked),-6.94%
5,CN1CCN(Cc2nc3c(c(=O)n(C)c(=O)n3C)n2CCCO)CC1,-3.23%
6,CCOCCCNC(=O)c1cn(C)c(=O)c2cc(OC)c(OC)cc12,0.231%
7,CC(C)NC(=O)c1ccc(N2CCN(C(C)C)CC2)nc1,-6.52%
8,CCN(CC)CCCCOc1ccccc1C,-2.28%
9,COCCCNc1cnn(C23CC4CC(CC(C4)C2)C3)c(=O)c1Cl,-3.44%
10,N#CCNC(=O)[C@@H](Cc1cccc2ccccc12)NC(=O)OCc1ccccc1,-1.5%
11,CC(C)Cn1c(=O)c2sccc2n2c(CCCC(=O)N3CCCCC3)nnc12,-6.56%
12,CCCN1CCN(C(=O)c2cccc3c2C(=O)N(CCOC)C3)CC1,-2.29%
13,CC1CCN(C(=O)Cn2cnc3onc(-c4ccc(F)cc4)c3c2=O)CC1,5.2%
14,Cc1ccc(-c2nc3s/c(=C\C=C\c4ccccc4)c(=O)n3n2)cc1,-1.52%
15,COc1ccccc1CNC(=O)C1CCC1,-3.37%
16,COc1ccc(-n2nnnc2C2CCN(S(=O)(=O)c3cc(OC)ccc3OC)CC2)cc1,1.67%
17,COc1ccc(-c2cc(C)no2)cc1S(=O)(=O)NCCCN(C)Cc1ccccc1,-2.25%
18,CC(C)(C)c1ccc(Oc2coc3cc(OCC(=O)NC4CCCCC4)ccc3c2=O)cc1,-7.45%
19,CCCCSCC1Cn2nc([N+](=O)[O-])nc2O1 (centres unmarked),-0.636%
20,O=C(c1ccccc1F)N1CCN(c2ccccc2)CC1,1.13%
21,COc1ccc(CNC(=O)c2cc3n(n2)C(C(F)(F)F)CC(c2ccco2)N3)cc1OC (centres unmarked),4.08%
22,Cc1nc2c(c(C)c1CCC(=O)NCCc1ccco1)c(=O)n(C)c(=O)n2C,6.84%
23,CCc1ccc(C(=O)CC2(O)C(=O)N(C)c3ccccc32)cc1 (centres unmarked),-6.86%
24,CCOC(=O)N1CCN(C(=O)COc2ccc(C)c(C)c2)CC1,-1.6%
25,Cc1ccc2[nH]c(-c3ccc(O)cc3)nc2c1,1.12%
26,O=C(Nc1ccc(F)cc1)C12CC3CC(CC(C3)C1)C2,6.18%

row,Compound,% Inhibition @ 10 uM
1,O=C(NCCCN1CCCCC1)C1=Cc2sc3c(c2CS1)CCCC3,7.04%
2,CC1=C(c2ccc(C(C)C)cc2)S(=O)(=O)N=C1NC(C)CCc1ccccc1 (centres unmarked),2.27%
3,CCN(CC)C(C)C(=O)Nc1c2c(cc3c1CCC3)CCC2 (centres unmarked),3.91%
4,CCCCN1CC(C(=O)NCCc2ccc(Cl)cc2)CC1=O (centres unmarked),4.81%
5,O=C(O)c1ccc(Cl)c(S(=O)(=O)N2CCCC2)c1,1.88%
6,CN(C)/C=N/c1ccn(Cc2ccccc2)c(=O)c1C#N,-0.591%
7,O=C(COc1ccc(Cl)c(Cl)c1)N(Cc1ccc(Br)cc1)c1cccc(Cl)c1,0.132%
8,CN1CCn2ccc3nc(O)nc1c32,3.74%
9,COc1ccc(-c2noc(CN(C(=O)c3ccc(OC)c(OC)c3)C3CCCCC3)n2)cc1,0.486%
10,Cc1cccc(N2CCN(C(=O)CCCC(=O)O)CC2)c1C,-0.898%
11,COc1cccc(OC)c1C(=O)NCc1ccc(Cl)c(Cl)c1,3.67%
12,Cc1ccc2scc(CN3CCCC3)c2c1,8.59%
13,O=C(O)/C(=C\c1ccc(F)cc1)NC(=O)c1ccco1,15.4%
14,COCC1=Nc2ncnn2C(c2ccc(OC)cc2)/C1=C(/O)OC (centres unmarked),-1.62%
15,Cc1c2cnn(CC(=O)N3CCN(Cc4ccccc4)CC3)c(=O)c2c(C)n1Cc1ccccc1F,-2.17%
16,COc1cc(C(=O)n2nc(-c3ccco3)nc2NCc2cccs2)cc(OC)c1OC,0.248%
17,CC1(C)Cc2ccccc2C(/C=C(\O)C(=O)N2CCOCC2)=N1,0.815%
18,COc1ccc(S(=O)(=O)Nc2c(C)n(C)n(-c3ccccc3)c2=O)cc1,-0.446%
19,Cc1cc(C)c2c(-n3cccc3)nn(CC(=O)NCCC(C)C)c2n1,1.64%
20,CC(C)N(Cc1ccccc1)C(=O)C(Cc1ccccc1)NS(=O)(=O)c1cccc2nsnc12 (centres unmarked),-9.06%
21,CCC1CCCCN1S(=O)(=O)c1ccc2ccc(C)cc2c1 (centres unmarked),-2.91%
22,Cc1ccc(-c2cn3c(n2)sc2cc(C(=O)NCCCOC(C)C)ccc23)c(C)c1,-0.613%
23,O=C(Cc1ccccc1)NCCN1CCOCC1,0.986%
24,O=C(COc1ccccc1)Nc1cccc(C(=O)O)c1,-2.84%
25,COc1ccc(/C=C2\Nc3ccccc3C2=O)cc1,-4.5%
26,O=C(Nc1nonc1NC(=O)C12CC3CC(CC(C3)C1)C2)c1ccccc1Cl,-4.49%

row,Compound,% Inhibition @ 10 uM
1,Cc1cccc(N2C(=O)C3CC=CCC3C2=O)c1 (centres unmarked),-1.07%
2,O=C(O)Cc1cccc2c1sc1ccccc12,2.4%
3,COc1cc(OC)c2c(C)c(CC(=O)NCc3ccco3)c(=O)oc2c1,0.895%
4,O=C(Nc1ccccc1-c1nc2ccccc2s1)c1cccnc1,-1.82%
5,Cc1[nH]nc2c1C(c1c(Cl)cccc1Cl)C(C#N)=C(N)O2 (centres unmarked),-4.94%
6,O=C(O)CN1C(=O)C2CC=CCC2C1=O (centres unmarked),14.3%
7,O=C1OC(c2ccc(Br)cc2)=N/C1=C\c1ccc2c(c1)OCO2,2.98%
8,Cc1c(Cl)cccc1NC(=O)c1ccc(OCC(=O)N2CCCCC2)cc1,-3.92%
9,C=CCn1c(=S)[nH]c2sc3c(c2c1=O)CC(C)(CC)OC3 (centres unmarked),5.61%
10,COc1ccc(-c2[nH]c(C(F)(F)F)nc2-c2nccn2C)cc1,1.89%
11,Cc1cccc(N2CCN(C(=O)c3ccccc3NC(=O)C3CC=CCC3C(=O)O)CC2)c1 (centres unmarked),0.145%
12,CC(C)(C)OC(=O)NC(Cc1ccccc1)C(=O)N1CCCC1C(=O)O (stereo not drawn) (Boc-Phe-Pro-OH; configuration not given here),0.275%
13,COc1ccc(-n2nnnc2C2CCN(S(=O)(=O)N(C)C)CC2)cc1,-1.71%
14,O=C(N/C(=C/C=C/c1ccccc1)C(=O)N1CCOCC1)c1ccccc1Cl,-6.94%
15,O=[N+]([O-])c1cccc(-c2ncnn2-c2ccc(Br)cc2F)c1,-1.82%
16,COc1cccc(NC(=O)Cc2ccccc2)c1,0.247%
17,CN(C)CCCN(CCCN(C)C)Cc1ccc2ccccc2c1,-0.603%
18,COc1ccc(/C=C2\SC(=O)N(CC(=O)Nc3ccc(C)cc3)C2=O)cc1O,-10.8%
19,CCOC(=O)c1cccc(NC(=O)C(C)Oc2ccccc2C)c1 (centres unmarked),-3.18%
20,COc1cccc(C2CC(=O)NC(SCC(=O)Nc3ccc(Br)cc3)=C2C#N)c1 (centres unmarked),-4.76%
21,O=C(COc1ccccc1Br)Nc1ccc(Cl)cc1,2.13%
22,CSCCC(NS(=O)(=O)c1cccs1)C(=O)NCCc1ccc(Cl)cc1 (centres unmarked),-2.56%
23,CCOC(=O)C1CCCCN1Cc1c(Cl)cccc1Cl (centres unmarked),-4.75%
